Experimental data taken from PubChem BioAssay AID1240 (Sanford-Burnham Center for Chemical Genomics, 2008).
The campaign covered roughly 50,000 compounds. About 800 (1.6%) showed an effect of 50% or more. The list shows a part of the results.

These molecules were tested against Bcl-2-like protein 10 (Homo sapiens) (UniProt Q9HD36) (assay: TR3 peptide-Bcl-B binding displacers, biochemical primary FP assay, phenotype converters (AID 1240;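 further: 0% = Bcl-B with tracer peptide and DMSO and 100% = tracer peptide lacking Bcl-B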)). Conditions: GST-Bcl-B / FITC-TR3 peptide fluorescence polarization; stronger effect = higher value; compound at 3.75 mg/L.
UniProt Q9HD36, sequence (Q9HD36 whole entry, looked up): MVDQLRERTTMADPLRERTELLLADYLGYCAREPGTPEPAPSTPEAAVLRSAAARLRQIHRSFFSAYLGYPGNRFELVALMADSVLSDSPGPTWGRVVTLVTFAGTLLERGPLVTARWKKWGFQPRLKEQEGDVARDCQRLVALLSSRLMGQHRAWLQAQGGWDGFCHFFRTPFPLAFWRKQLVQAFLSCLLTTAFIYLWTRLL

Row | SMILES | displacement
1 | CCOc1ccccc1NC(=O)C(=O)N/N=C/c1ccc(C(C)(C)C)cc1 | -5.1%
2 | COc1ccccc1NC(=O)CCN1C(=O)S/C(=C/c2ccc(OC)c(OC)c2)C1=O | 34.6%
3 | CCN(CC)C(=O)CSc1nc(-c2ccccc2)c(-c2ccccc2)o1 | 6.6%
4 | Oc1ccccc1/C=N/Nc1cc(N2CCCCC2)nc(N2CCCCC2)n1 | -0.9%
5 | COc1ccc(C2/C(=C(\O)c3ccc(F)cc3)C(=O)C(=O)N2c2ccccn2)cc1OC (stereo not given) | 10.5%
6 | O=C(CC1S/C(=N\N=C\c2cccs2)NC1=O)Nc1ccccc1F (stereo not given) | -12.7%
7 | O=C(c1cc(F)c(F)cc1Cl)N1CCN(c2ccc([N+](=O)[O-])cc2C(F)(F)F)CC1 | 2.8%
8 | O=C(Nc1ccccc1)c1ccccc1N1C(=O)c2ccccc2C1=O | 3.6%
9 | O=C1C(=O)N(CCO)C(c2cccc([N+](=O)[O-])c2)/C1=C(\O)c1ccccc1 (stereo not given) | -12.7%
10 | Nc1nc(/N=C/c2ccc(F)cc2)n[nH]1 | -0.9%
11 | Cc1c(NC(=O)c2ccc3c4c(cccc24)CC3)c(=O)n(-c2ccccc2)n1C | 4.5%
12 | Cc1ccc(C)c(NC(=O)Cn2nc(C)c3ccccc3c2=O)c1 | -15.4%
13 | Cc1ccc(C(C)C)c(OCC(=O)N/N=C/c2cc3c(cc2Cl)OCO3)c1 | 7.9%
14 | CCOc1c(Br)cc(/C=C2/C(=O)NN(c3ccc(CC)cc3)C2=O)cc1OC | 20.5%
15 | CCOc1ccc(NC(=O)C2C3CCC4C(CCC32)C4(Cl)Cl)cc1 (stereo not given) | -4.6%
16 | COc1ccc(N(CC(=O)Nc2cccc3ccccc23)S(C)(=O)=O)cc1Cl | 0.5%
17 | CCOc1cc(C=O)ccc1OCc1c(F)cccc1Cl | -6.7%
18 | CC(C)C(NC(=O)c1c(Cl)cccc1Cl)C(C)C | 6.5%
19 | CCN(CC)C(=O)COc1ccc(C=O)cc1OC | -8.5%
20 | CC(NC(=O)CSc1nnc(N)s1)c1ccccc1 (stereo not given) | 3.5%
21 | CCOc1ccc(/C=N/N2C(=O)C3C(C2=O)C2C=CC3C23CC3)cc1OC (stereo not given) | 10.2%
22 | CC(C)C1/C(=N/O)CC(c2ccccc2)NC1c1ccccc1 (stereo not given) | 8.4%
23 | Cc1cc(/C=N/NC(N)=O)c(C)n1-c1ccc(Br)cc1 | -6.4%
24 | CC(=Nc1cccc2ccccc12)c1cc(Cl)ccc1O | 13.5%
25 | NC(=O)c1cccc(N=Cc2ccc(OCc3ccccc3)cc2)c1 | -6.6%
26 | CN(C)c1cccc(C(=O)Nc2ccc(F)c(Cl)c2)c1 | 5.8%
27 | CC(C)(C)c1ccc(C(C)(C)C)c(O)c1O | -14.7%
28 | COc1ccc(NC(=O)COc2ccc(Br)cc2)cc1 | -7.5%
29 | COc1cccc(/C=C2\C(=O)NC(=O)N(c3cc(C)cc(C)c3)C2=O)c1 | -7.8%
30 | Cc1csc(NC(=O)c2ccc(-c3ccc(Cl)cc3Cl)o2)n1 | -5.8%
